Results taken from PMC4336329 (PLoS ONE, 2015).
Among all 310,000 compounds or so, about 2,200 (0.71%) showed an effect of 50% or more. The effect is printed as a negative number. This is one part of the list.

Molecular target: human ether-à-go-go-related gene (hERG) potassium channel (human, UniProt Q12809)
Experiment: primary screen, population patch clamp on CHO cells stably expressing hERG

Chain of human ether-à-go-go-related gene (hERG) potassium channel (Q12809 whole entry, looked up): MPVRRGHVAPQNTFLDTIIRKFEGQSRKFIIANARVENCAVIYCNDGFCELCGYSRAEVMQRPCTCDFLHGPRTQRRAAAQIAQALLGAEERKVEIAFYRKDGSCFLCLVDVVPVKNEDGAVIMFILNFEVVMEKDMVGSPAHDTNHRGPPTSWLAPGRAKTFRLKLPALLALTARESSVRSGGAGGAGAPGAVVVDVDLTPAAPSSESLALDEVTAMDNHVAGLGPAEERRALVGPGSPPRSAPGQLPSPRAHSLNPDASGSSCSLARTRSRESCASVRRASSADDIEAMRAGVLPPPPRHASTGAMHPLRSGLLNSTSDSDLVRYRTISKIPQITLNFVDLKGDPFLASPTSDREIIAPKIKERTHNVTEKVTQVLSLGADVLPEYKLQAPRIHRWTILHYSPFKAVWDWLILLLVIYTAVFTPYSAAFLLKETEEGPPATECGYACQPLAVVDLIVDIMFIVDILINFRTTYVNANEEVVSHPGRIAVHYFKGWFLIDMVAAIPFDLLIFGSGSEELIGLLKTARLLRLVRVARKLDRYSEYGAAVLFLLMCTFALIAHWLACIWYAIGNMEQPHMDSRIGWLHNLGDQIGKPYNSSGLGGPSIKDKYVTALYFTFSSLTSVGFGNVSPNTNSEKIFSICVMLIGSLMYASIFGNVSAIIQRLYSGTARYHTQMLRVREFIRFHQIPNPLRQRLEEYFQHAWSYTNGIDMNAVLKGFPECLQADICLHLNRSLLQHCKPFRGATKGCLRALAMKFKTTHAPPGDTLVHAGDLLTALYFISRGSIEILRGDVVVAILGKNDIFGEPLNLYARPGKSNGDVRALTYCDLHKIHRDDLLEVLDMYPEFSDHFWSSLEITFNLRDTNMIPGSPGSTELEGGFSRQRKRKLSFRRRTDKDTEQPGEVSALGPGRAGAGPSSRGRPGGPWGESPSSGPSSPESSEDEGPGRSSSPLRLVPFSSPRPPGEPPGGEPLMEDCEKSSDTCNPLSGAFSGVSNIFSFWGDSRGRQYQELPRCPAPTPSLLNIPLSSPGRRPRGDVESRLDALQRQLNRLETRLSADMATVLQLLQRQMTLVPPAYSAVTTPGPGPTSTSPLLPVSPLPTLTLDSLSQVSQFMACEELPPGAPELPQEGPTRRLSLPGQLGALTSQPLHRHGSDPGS

Row | SMILES | hERG current change (%, negative = inhibition) at 1uM
1 | CCc1noc(C)c1C(=O)NNC(=O)COc1ccc(C)cc1 | 9.88%
2 | COCCN(C(=O)CCC(=O)Nc1ccccn1)C(C(=O)NC(C)(C)C)c1ccc(OC)cc1 (stereo not shown) | 16.5%
3 | O=C(CSc1nc(C2CCCCC2)nc2ccccc12)N1CCCC1 | 5.28%
4 | COc1cc(/C=N/N=C2\CC3CCC2(C)C3(C)C)ccc1O (stereo not shown) | 11.7%
5 | CCCn1c(C)cc(/C=C(\C#N)C(=O)OCC(=O)Nc2cc(OC)c(OC)c(OC)c2)c1C | 3.06%
6 | CCOC(=O)CNC(=O)Cn1c(C)cc2ccccc2c1=O | 20.1%
7 | Cc1ccc(N(C)C(=O)Oc2ccc(C(=O)c3ccc(Cl)cc3)cc2)cc1 | 9.2%
8 | COc1cc(OC)nc(Oc2ccc(N)c(C)c2)n1 | 5.07%
9 | CC(=O)N1CSCC1C(=O)NNS(=O)(=O)c1cccc(C(F)(F)F)c1 (stereo not shown) | 11.9%
10 | C=CCNC(=O)c1c(CSc2ccc(Cl)cc2)noc1C(=O)NCCC | 3.31%
11 | Cc1ccc(-c2nn(-c3ccccn3)c(=O)c3ccccc23)cc1C | 5.79%
12 | COc1ccc(-c2c(C)n([O-])c3c([n+]2=O)CCC3)cc1OC | 9.66%
13 | CCn1c(Oc2ccccc2)nc2c1c(=O)n(C)c(=O)n2C | 11.7%
14 | COc1ccc(C(=O)NNC(=O)Cc2nc3nc(C)cc(C)n3n2)cc1 | 13.9%
15 | Cc1cc(Br)ccc1NS(=O)(=O)c1c(C)[nH]c(=O)[nH]c1=O | 11.5%
16 | O=C(COc1ccccc1)N1CCNC1=O | 5.99%
17 | COc1ccc(S(=O)(=O)N2CCOCC2)cc1C(=O)Nc1nc2ccccc2s1 | 3.58%
18 | Cc1ccc(-c2csc(NC(=S)NC(=O)c3cc4ccccc4o3)n2)cc1 | 7.36%
19 | Clc1ccc(OCCn2ccnc2)c(Br)c1 | 7.74%
20 | Cc1cc(C)nc(NC(=O)c2cccc([N+](=O)[O-])c2C)n1 | -21.2%
21 | O=C(c1ccc([N+](=O)[O-])cc1)N1CCN=C1SCc1ccccc1 | -6.39%
22 | CC(C)c1ccc(NC(=O)CC2Oc3ccccc3NC2=O)cc1 (stereo not shown) | 10.7%
23 | COc1ccc(C(c2nnnn2Cc2cccs2)N2CCN(c3ccc(F)cc3)CC2)cc1OC (stereo not shown) | -19.5%

Row | SMILES | hERG current change (%, negative = inhibition) at 1uM
24 | COc1ccc(Cl)cc1NC(=O)N1CCN(c2ccccc2OC)CC1 | 5.02%
25 | CC(C)(C)CC(C)(C)c1ccc(OCC(=O)N/N=C/c2ccc(S(=O)(=O)[O-])o2)cc1 | 11.4%
26 | COc1cc2ncnc(NCc3ccccc3Cl)c2cc1OC | 6.63%
27 | COc1ccccc1CNC(=O)COc1ccc2c(c1)CCC2 | 15%
28 | Cc1ccc(SCC(=O)OCC(=O)NCc2ccco2)cc1 | 1.59%
29 | Cc1n[nH]c(C)c1CCCCOc1ccccc1 | 3.72%
30 | COc1cc(/C=N/N2CCN(c3ccccc3)CC2)cc(OC)c1OC(C)=O | 2.2%
31 | CN(C)c1cc(-c2ccc(F)cc2)oc(=O)c1Cl | 7.03%
32 | CC1CCCCN1S(=O)(=O)c1cccc(S(=O)(=O)N2CCOCC2)c1 (stereo not shown) | 1.3%
33 | CCS(=O)(=O)N1CCC(NC(C)=O)(c2ccccc2)CC1 | 11.5%
34 | COc1cc(OC)nc(NC(=O)COC(=O)c2cccc(Cl)c2)n1 | 0.488%
35 | c1ccc2c(c1)[nH]c1c(N3CCC4(CC3)OCCO4)ncnc12 | -5.34%
36 | COc1ccc(S(=O)(=O)N2CCN(C(=O)Cc3cccs3)CC2)cc1 | 1.32%
37 | O=C(Nc1ccncc1)c1cc2ccccc2cc1O | 8.27%
38 | CCOC(=O)c1sc(C)c2c(=O)n(CC(=O)c3ccc(Br)cc3)nnc12 | 7.69%
39 | CC(C)Sc1nnc([C@H](Cc2ccccc2)NC(=O)OC(C)(C)C)o1 | 7.44%
40 | Cn1c(-c2cnn(-c3ccccc3)c2-n2cccc2)n[nH]c1=S | 17%
41 | CC1CC(C)CN(CCCNC(=O)c2nn(C)c3c2CS(=O)(=O)c2ccccc2-3)C1 (stereo not shown) | -26.2%
42 | C/C(=N\NC(=O)Cc1ccccc1)c1cccnc1 | 12.7%
43 | O=C1CCc2cc(S(=O)(=O)NCCC(=O)NC3CCN(Cc4ccccc4)CC3)ccc2N1 | 3.12%
44 | Cc1sc(NC(=O)c2ccc3ncsc3c2)c(C(N)=O)c1C | 12%
45 | C/C(CC(=O)Nc1ccccc1Br)=N\NC(=O)C(=O)N1CCCC1 | 11.1%
46 | CCN(CC)CCCNC(=O)C1CCCN(c2nnc(N3CCCC3=O)s2)C1 (stereo not shown) | 1.83%

Row | SMILES | hERG current change (%, negative = inhibition) at 1uM
47 | COc1ccc(C(=O)C2CCCN(C3Cc4ccccc4C3)C2)c(OC)c1 (stereo not shown) | -68.2%
48 | COc1ccc(NC(=S)N2CCN(c3ncccn3)CC2)c(OC)c1 | 14.6%
49 | Cc1cc(NC(=O)CSc2ccc3nnc(-c4ccccc4)n3n2)no1 | 1.79%
50 | CCN(CC)c1ccc(NC(=O)c2ccc3c(c2)OCO3)cc1 | 11.2%
51 | CCOc1ccc(S(=O)(=O)N2CCN(C(=S)NCc3ccccc3)CC2)cc1 | -5.62%
52 | OC1(c2ccc(Br)cc2)CN(c2ccccc2)C2=[N+]1CCS2.[Br-] (stereo not shown) | 4.59%
53 | CCOC(=O)c1cnc(=O)[nH]c1C.Cl | -4.65%
54 | COc1ccc(N2C(=O)CSC23C(=O)Nc2ccccc23)cc1OC (stereo not shown) | 9.91%
55 | CCOC(=O)C(Cc1ccc(OC)c([N+](=O)[O-])c1)NC(=O)CCC(=O)Nc1ccc(OC)cc1 (stereo not shown) | 1.57%
56 | COCCCNC(=O)Cn1cnc2sc(C)c(S(=O)(=O)N3CC(C)CC(C)C3)c2c1=O (stereo not shown) | 7.02%
57 | NC(=S)N=Nc1c(O)n(Cc2ccccc2)c2ccccc12 | 11.3%
58 | CCOC(=O)N1CCN(S(=O)(=O)CCNC(=O)c2cccc(OC)c2)CC1 | 11.1%
59 | CC(=O)Nc1ccc2nc3ccccc3nc2c1 | 7.61%
60 | Cc1ccc(S(=O)(=O)Nc2cccc(-n3cnnn3)c2)cc1C | 15.2%
61 | CCOC(=O)C1CCN(c2cc(C)nc3cc(-c4cccc(F)c4)nn23)CC1 | -1.27%
62 | O=C(NCc1ccccc1)c1ncn(Cc2ccccc2)c1C(=O)NCc1ccccc1 | 13.3%
63 | Cc1cccc(OCC(=O)N/N=C/c2ccc3c(c2)OCO3)c1 | 16.6%
64 | O=C(O)/C=C/C(=O)NCc1ccccc1 | 11.4%
65 | Cc1ccc(C(c2nnnn2CCC(C)C)N2CCN(C)CC2)cc1.Cl (stereo not shown) | 4.31%
66 | COc1ccccc1NC(=O)CN1C(=O)NC2(CCCCCCC2)C1=O | 9.59%
67 | Cn1c(O)c(C(=NCCc2c[nH]c3ccccc23)c2ccccc2)c(=O)n(C)c1=O | 7.13%
68 | Cc1ccc(C(=O)NC(C)c2ccc(S(N)(=O)=O)cc2)s1 (stereo not shown) | 13.7%
69 | Cc1ccc(C)c(NC(=S)NCCc2c[nH]c3ccccc23)c1 | 9.77%

Row | SMILES | hERG current change (%, negative = inhibition) at 1uM
70 | O=[N+]([O-])c1cc(/C=N/O)ccc1Oc1ccccc1Cl | 10.1%
71 | COc1ccccc1N(CC(=O)NCc1ccccc1)C(=O)CCC(=O)Nc1cc(C)ccn1 | 9.95%
72 | N#Cc1cnc(NOCc2ccc(Cl)cc2)nc1 | 6.32%
73 | CC(=O)c1ccc(NC(=O)COC(=O)c2ccccc2Nc2ccccc2)cc1 | 11.3%
74 | O=C1CCCN=C(Nc2ccc(F)c(Cl)c2)S1 | 0.757%
75 | O=C(CN1CCN(C(=O)c2ccco2)CC1)Nc1cccc(S(=O)(=O)N2CCCC2)c1 | 5.73%
76 | Cc1cccc2sc(NC(=O)C3CCCO3)nc12 (stereo not shown) | 11.9%
77 | CCn1c(CNc2ccc(C)cc2)nnc1SCC(=O)NCc1ccccc1 | -2.06%
78 | CCCN1CCC(=O)N(CCOc2ccccc2)CC1 | 5.47%
79 | CCC(=O)c1ccc(OCC(=O)N2CCN(C(=O)c3ccccc3)CC2)cc1 | 11.3%
80 | CCOC(=O)CSc1ccc(C(=O)N2CCC3(CC2)OCCO3)cc1[N+](=O)[O-] | 27%
81 | O=C(Nc1ccccc1C(=O)NCc1ccccc1)C1=CSCCO1 | 11.5%
82 | Cc1cc(S(=O)(=O)NC2CCCCC2)ccc1OCC(=O)NCc1cccnc1 | -0.59%
83 | Cc1cc(NC(=O)CN2C(=O)NC3(CCC(C)CC3)C2=O)no1 (stereo not shown) | 24.7%
84 | Cc1ccc(NC(=O)CSc2n[nH]c(C)c2[N+](=O)[O-])cc1C | 11%
85 | Cc1ccc(NC2CCCN(C(=O)c3ccccc3N3CCOCC3)C2)cc1C (stereo not shown) | 2.04%
86 | Cn1c(CN2CCCCC2)nc2cc(NC(=O)c3ccc(Cl)cc3)ccc21 | -27.6%
87 | CCn1c(CC(=O)Nc2ccc(OC)cc2)nnc1SCC(=O)N1CCOCC1 | 9.01%
88 | Cc1ccc(C(=O)OCC(=O)N2C(C)CCCC2C)cc1S(=O)(=O)N1CCCCC1 (stereo not shown) | -7.96%
89 | Nc1ccc(C23CC4CC(CC(CO)(C4)C2)C3)cc1 | 13.8%
90 | CC(=O)Nc1nc2cc(N)ccc2s1 | 6.49%
91 | COc1cc2c(cc1OC)CN(C(=O)c1nn(Cc3ccccc3)c(=O)c3ccccc13)CC2 | 11.3%
